Results published in PubChem BioAssay AID624173 (National Center for Advancing Translational Sciences (NCATS), 2012).
In all, about 410,000 compounds went through this assay and about 490 (0.12%) were called active. This list was built around the results that the source calls inconclusive (neither active nor inactive); the mix of calls is not that of the screen. The call rests on the fitted dose curve; in most records, active means well fitted inhibition curve with a large enough effect; inconclusive means small, poorly fitted or top-dose-only effect; inactive means flat fitted curve, though single readings scatter. Potencies beside an inconclusive call are fits to weak or partial responses and may not hold up.

biological target: pyruvate kinase (Trypanosoma brucei) (UniProt Q57TT1); test: qHTS of Trypanosoma Brucei Inhibitors; details: TbPYK enzyme, Kinase-Glo Plus ATP luminescence, 45 min; series mostly up to 76.8 µM; further: nearly all actives have a fitted effect of over 50% in size
Summary of the method: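 ADP (130 uM final) triggers the TbPYK reaction after compound addition; incubation is 45 min at room temperature. Kinase-Glo Plus is then added and luminescence imaged. Normalized data are fitted to concentration-effect curves.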
Potency means the concentration at half of the fitted maximal effect; tags describe the fitted curve by direction and shape.

Structure (SMILES)	Potency
C=CCn1c(-c2cccn(Cc3ccccc3)c2=O)n[nH]c1=S	inconclusive: 25.1 µM [inhibitor, single point]
S=c1[nH]nc(-c2ccc(Cl)cc2)n1/N=C/C=C/c1ccco1	inconclusive: 2.82 µM [inhibitor, partial curve]
O=C(Nc1cc(Cl)cc(Cl)c1)C(NCCO)c1ccccc1 (configuration not stated)	inactive
O=C(COc1ccc(Cl)cc1Cl)NCCSc1ccc(Cl)cc1	inconclusive: 28.2 µM [inhibitor, single point]
O=S(=O)(O)c1cc(O)c2c(N=Nc3ccc(Nc4ccccc4)c4c(S(=O)(=O)O)cccc34)cc(S(=O)(=O)O)cc2c1	inconclusive: 44.7 µM [inhibitor, single point]
Cc1cccc(N/C=C/c2onc(C)c2[N+](=O)[O-])c1	inconclusive: 25.1 µM [inhibitor, partial curve, poor fit]
CCC1CCCCN1CCCNC(=O)c1sc2nc(C)cc(C)c2c1-n1cccc1 (configuration not stated)	inactive
Cn1cccc1/C=N/N1CCN(Cc2ccccc2)CC1	inconclusive: 35.5 µM [inhibitor, single point]
CNC(=O)c1ccc(-c2sc3nc(N4CCOCC4)c4c(c3c2N)CC(C)(C)OC4)o1	inactive
N/C(=N\OC(=O)c1ccc(Cl)cc1)c1[nH]ncc1Br	inconclusive: 35.5 µM [inhibitor, partial curve, poor fit]
CC1=C/C(=C(\c2cc(C)c(O)c(Br)c2)c2ccccc2S(=O)(=O)O)C=C(Br)C1=O	inconclusive: 31.6 µM [inhibitor, partial curve, poor fit]
O=C(CSc1nnc(COc2ccccc2)n1-c1ccccc1)c1cccs1	inconclusive: 39.8 µM [inhibitor, partial curve, poor fit]
CCCC(CCC(=O)Nc1ccc(S(N)(=O)=O)cc1)C(=O)O (configuration not stated)	inconclusive: 1.58 µM [inhibitor, full curve]
Cc1nc(C)c(C(=O)Nc2ncc([N+](=O)[O-])s2)o1	inconclusive: 28.2 µM [inhibitor, single point]
C[C@@H]1CCCCO[C@@H](CN(C)S(=O)(=O)c2ccc(F)cc2)[C@@H](C)CN([C@H](C)CO)C(=O)c2cc(N(C)C)ccc2O1	inconclusive: 20 µM [inhibitor, partial curve]
COC(=O)c1ccccc1NC(=O)c1sc(=S)n(C)c1N	inconclusive: 31.6 µM [inhibitor, partial curve, poor fit]
Cc1ccc(-c2nnc3ccc(SC(C)C(=O)O)nn23)cc1 (configuration not stated)	inconclusive: 22.4 µM [inhibitor, single point]
CCOCCCn1c(-c2ccc(Cl)cc2)n[nH]c1=S	active: 8.91 µM
CCOC(=O)c1c(C)n(C)c2cc(Br)c(O)c(O)c12	inconclusive: 12.6 µM [inhibitor, partial curve, poor fit]
O=C(NCc1n[nH]c(=S)n1-c1ccccc1)c1ccc(S(=O)(=O)N2CCOCC2)cc1	inconclusive: 10 µM [inhibitor, partial curve, poor fit]
COc1ccc(OC)c(N2C(=O)NC(=O)/C(=C/c3ccc([N+](=O)[O-])s3)C2=O)c1	inconclusive: 17.8 µM [inhibitor, partial curve, poor fit]
Cc1ccnc(N2C(=O)c3ccccc3C2O)c1 (configuration not stated)	inconclusive: 28.2 µM [inhibitor, partial curve]
CC1(C)CC(=O)C(C(c2ccco2)C2C(=O)CC(C)(C)CC2=O)C(=O)C1	inconclusive: 31.6 µM [inhibitor, partial curve, poor fit]

Structure (SMILES)	Potency
Oc1cc[c]([Hg][Cl])cc1	active: 1.41 µM
FC(F)(F)c1ccc2c(c1)N1CCCC1CN2 (configuration not stated)	inconclusive: 35.5 µM [inhibitor, partial curve, poor fit]
Cc1nc(SCc2ccc(O)c([N+](=O)[O-])c2)c([N+](=O)[O-])[nH]1	inconclusive: 14.1 µM [inhibitor, partial curve, poor fit]
CCc1ccc(Cc2cnc(NC(=O)C3=NCCN3)s2)cc1	inactive
CCN(CC)c1ccc(NC(=O)C2CC3CCC2C3)cc1 (configuration not stated)	inconclusive: 7.94 µM [inhibitor, partial curve]
COc1cccc(/C=N/n2c(-c3cc(C)[nH]n3)n[nH]c2=S)c1	inconclusive: 3.16 µM [inhibitor, partial curve]
S=c1[nH]nc(COc2ccc(Cl)cc2)n1-c1ccccc1	active: 8.91 µM
Cc1[nH]c2ccccc2c1C(=O)CSc1ncn[nH]1	inconclusive: 28.2 µM [inhibitor, single point]
O=c1c2ccccc2cnn1Cc1n[nH]c(=S)n1-c1ccccc1	inconclusive: 31.6 µM [inhibitor, partial curve, poor fit]
CCOc1ccc(NC(C)=O)cc1N	inconclusive: 35.5 µM [inhibitor, partial curve, poor fit]
CN(C)c1ccc(/C=C(\C#N)C(=O)c2ccccc2)cc1	inactive
CCc1ccc(NC(=O)NCC2CCN(c3ccc(OC)cc3)C2)cc1 (configuration not stated)	inconclusive: 10 µM [inhibitor, partial curve, poor fit]
O=C1CN(c2nc(-c3cccs3)nc3sc4c(c23)CCCC4)CCN1	inconclusive: 35.5 µM [inhibitor, single point]
Cc1ccc(-n2c(-c3ccncc3)n[nH]c2=S)c(C)c1	active: 7.08 µM
CN1CCN(CC(O)COCCOc2ccc(Br)cc2)CC1 (configuration not stated)	inconclusive: 35.5 µM [inhibitor, single point]
CCCCN(C)CCCNC(=O)c1cc(=O)[nH]c2ccc(S(=O)(=O)N3CCCCC3)cc12	inactive
Cc1ccc(-c2n[nH]c(=S)n2Cc2ccccc2)cc1	inconclusive: 2.82 µM [inhibitor, full curve, poor fit]
Nc1cc(S(=O)(=O)Nc2ccc(Cl)cc2)ccc1N1CCOCC1	inconclusive: 5.01 µM [inhibitor, partial curve]
S=c1[nH]nc(-c2ccc(Br)cc2)n1-c1ccc(Br)cc1	inconclusive: 3.98 µM [inhibitor, full curve, poor fit]
CCCCC(O)(CCCC)C(=O)NN(C(=O)c1cccnc1Cl)c1ccccc1	inconclusive: 50.1 µM [inhibitor, partial curve, poor fit]
COc1ccc(-n2c(-c3cccc(C)c3[N+](=O)[O-])n[nH]c2=S)cc1	inconclusive: 11.2 µM [inhibitor, partial curve, poor fit]
CCOc1ccccc1C(=O)N1CCN(c2cccc(Cl)c2)CC1	inactive
Cc1cc(C)c(S(=O)(=O)Nc2ccc[nH]c2=O)c(C)c1	inactive

Structure (SMILES)	Potency
Clc1nccnc1N/N=C/c1ccc(Br)cc1	inconclusive: 31.6 µM [inhibitor, partial curve, poor fit]
CC1(C)Cc2c(C#N)c(NCCc3ccccc3)nc(-c3ccco3)c2CO1	inconclusive: 25.1 µM [inhibitor, partial curve, poor fit]
COc1ccc(N2CC(C(=O)N[C@@H](CC(C)C)C(=O)NC3CCCC3)CC2=O)cc1 (some centres not stated)	inactive
CCCCOc1cccc(C(=O)Nc2ccc(S(=O)(=O)Nc3nnc(CC)s3)cc2)c1	inactive
CC(=O)c1sc2nc(-c3ccco3)ccc2c1N	inconclusive: 10 µM [inhibitor, partial curve]
CCOC(=O)N1CCc2c(sc(NCc3sccc3C)c2C(=O)Nc2cc(OC)ccc2OC)C1	inconclusive: 2.51 µM [inhibitor, full curve]
Cc1cc(=O)[nH]c2nnc(SCc3ccc(Cl)c(Cl)c3)n12	inactive
CCOC(=O)N1CCN(C(=O)CSc2nnc(-c3cccc(OC)c3)o2)CC1	inconclusive: 50.1 µM [inhibitor, single point]
Cc1noc(C)c1C(=O)NCCc1ccc(Cl)cc1	inconclusive: 5.01 µM [inhibitor, partial curve, poor fit]
S=c1[nH]c2ccccc2n1Cc1ccccc1	inconclusive: 3.55 µM [inhibitor, partial curve, poor fit]
CC1CCn2c(nc3cc(C(=O)NCc4ccccc4)ccc32)C1 (configuration not stated)	inactive
CCOC(=O)c1c(C)[nH]c(=S)c(C#N)c1-c1ccc(OC)cc1	inconclusive: 5.62 µM [inhibitor, full curve, poor fit]
Cc1cccc2sc(NNC(=O)c3ccc(S(=O)(=O)N4CCCC(C)C4)cc3)nc12 (configuration not stated)	inconclusive: 35.5 µM [inhibitor, single point]
O=C(CSc1nnc(CCc2ccccc2)n1-c1ccc(Cl)cc1)c1ccccc1	inconclusive: 17.8 µM [inhibitor, partial curve, poor fit]
CC(=O)C(Sc1nn(C)c(=S)s1)C(=O)Nc1ccccc1 (configuration not stated)	active: 31.6 µM
CCN1C(=O)C(NC(C)=O)c2cc(OC)ccc21 (configuration not stated)	inconclusive: 22.4 µM [inhibitor, partial curve, poor fit]
Nc1nc2ccccc2n1C(=O)c1ccccc1	inconclusive: 35.5 µM [inhibitor, single point]
C=CCCCCCCCCC(=O)Nc1ncccn1	inconclusive: 39.8 µM [inhibitor, single point]
O=C(N/N=C/c1cn(-c2cccs2)nc1-c1ccccc1)c1ccccc1Br	inactive
CC(=O)N1CCN(c2ccc(NCc3ccc4c(c3)OCO4)cc2)CC1	inactive
CCSS(=O)(=O)c1cccc2cccnc12	active: 10 µM
